Sequences and labels used below:
B1: chr2:5695263:5695412:+|3pUTR|ENSG00000176887|msi1_unk|FALSE|overlapping (ssRNA)
RNA: GGGAGUUCUACAGUCCGACGAUCUGGUGAUAUAGACCUCAGAGCUGUUAUCUUAGUUUAAAGAUUGUAUAUGUACUGUACUAUAGUAGGACUUUAUGUAUCUCAUACGCUGUGAUGUGGAUGGGGCCCCAGAUGGAAGGUUUGCAACAGAGGAUUGAGCAUCA
B2: chr13:28712679:28713550:-|CDS|ENSG00000139508|control|control|control (ssRNA)
RNA: GGGAGUUCUACAGUCCGACGAUCUGAAGUUUUUAUAGGUUAUGGAUCAGCUUUGGGUAGUGCCUCUUUUUUGACUAGUUUCCUAGGAAUAUGGCUUUUUUCUUAUUGUAUGGAAGAUAUUCAUAUGGCCUUCAUUGGGAUUUUCAACAGAGGAUUGAGCAUCA
B3: chr13:110149936:110150037:-|3pUTR|ENSG00000187498|msi1|total|mutant (ssRNA)
RNA: GGGAGUUCUACAGUCCGACGAUCUUCUUGUAUUAUAAUUAAUUUUCUACCCCCAGAGAUAAAUGUUUGUUUAUAUCACUGUCCCGCUGUUUCAAAAUUCCGGUCCCUUGGUCUGUACAAAUAACCGCAAUGUAAAAAUGGUUUCAACAGAGGAUUGAGCAUCA
B4: chr1:119916538:119916684:-|CDS|ENSG00000134250|unk|FALSE|bound_elsewhere (ssRNA)
RNA: GGGAGUUCUACAGUCCGACGAUCAGAGACACCUCUGUUUCUUGCUGCCCGGGAGGGGAGCUAUGAAGCAGCCAAGAUCCUGUUAGACCAUUUUGCCAAUCGAGACAUCACAGACCAUAUGGAUCGUCUUCCCCGGGAUGUGGCCAACAGAGGAUUGAGCAUCA
B5: chr7:5527443:5527567:-|3pUTR|ENSG00000075624|msi1_unk|FALSE|overlapping (ssRNA)
RNA: GGGAGUUCUACAGUCCGACGAUCCAUCCCCCAAAGUUCACAAUGUGGCCGAGGACUUUGAUUGCACAUUGUUGUUUUUUUAAUAGUCAUUCCAAAUAUGAGAUGCGUUGUUACAGGAAGUCCCUUGCCAUCCUAAAAGCCACCCAACAGAGGAUUGAGCAUCA
B6: chr21:34788506:34788607:-|3pUTR|ENSG00000159216|msi1|total|mutant (ssRNA)
RNA: GGGAGUUCUACAGUCCGACGAUCUUGUUAAUGCCUAUAACUUUUUUUCAAUUUUUUUGUGUGUGUUUCUAAGGACUUUUUCUCCGGUUUGCUAAAUACUGCCGGGAAAAAAAUGCUUCUUUCUACUUUGUUUAUUUCCGACUUCAACAGAGGAUUGAGCAUCA
B7: chr7:137879121:137879144:-|3pUTR|ENSG00000182158|msi1_unk|total|mutant (ssRNA)
RNA: GGGAGUUCUACAGUCCGACGAUCUAAUCCCCAACCUACUUUCCGUUUUUUUGUUUUUUUUUUAUGGUUAAAAGUAACUUUUGCCGUUUAAAAAAAUCUUUCCUCUUUCAUAUAAAUAAGAAGUGGAAAUUGCCUUUUUAUUGUCAACAGAGGAUUGAGCAUCA
B8: chr15:38352922:38353023:+|3pUTR|ENSG00000166068|msi1|total|mutant (ssRNA)
RNA: GGGAGUUCUACAGUCCGACGAUCUACAUAUAAAUUUAUUUCUUUUGCAGAGCAUUAUAUUACUGGAUGUUUAAUUUACAAAACCGUUGGGUAAAUGUUCCAACAAACUUUAAAGUACCUUGAAGUCAAAUUGUCUGUUUUUGUCAACAGAGGAUUGAGCAUCA
B9: chr3:31579932:31580050:+|CDS|ENSG00000163527|unk|FALSE|unique (ssRNA)
RNA: GGGAGUUCUACAGUCCGACGAUCUACAUCUAUAUCUACUUUCCUGCUUACAAGAGAACUUUGGAACCAAGGAGCAGGACUUUUAGCUGCUUGUUUUAUUGCUAUUGUACCAGGCUACAUAUCUCGGUCAGUAGCUGGAUCCUUCAACAGAGGAUUGAGCAUCA
B10: chr19:38409054:38410039:-|three_prime_utr|ENSG00000171777|control|control|control (ssRNA)
RNA: GGGAGUUCUACAGUCCGACGAUCCUCCCUUCCCCCAGUCAGUCCUGAGUCCUGCCGUCAGACUCUGGCAGGGCUCCCAGAGGUAGGCCUCCAGAGGCAUCCGCCUUCCCAUCCACACUGCCUUUAGUGGUACGUCCGUCAUCUCAACAGAGGAUUGAGCAUCA
B11: ENSG00000102230:stop:overlap|stop_codon|ENSG00000102230|stop_codon|NA|stop_codon (ssRNA)
RNA: GGGAGUUCUACAGUCCGACGAUCUGCAGGCCUUAUCCCCGAAGCAGAGCCCUCUGAAGAGUUGGGCGAGGUGCAGAGACUUCUAGCUGGACAACCUACACAAACCUUAGCGUCUAGAGUCACUCUAACCUUGCUAAGGAAGGACAACAGAGGAUUGAGCAUCA
B12: chr21:18281039:18281221:-|CDS|ENSG00000154646|control|control|control (ssRNA)
RNA: GGGAGUUCUACAGUCCGACGAUCACCUCUCCUCAAACAGUCCCUCGAUUAAUAGAUGAAAUUGUCAUAAACCCUCAUUACAAUAGGCGAAGAAAGGACAACGACAUUGCCAUGAUGCAUCUGGAAUUUAAAGUGAAUUACACACAACAGAGGAUUGAGCAUCA
B13: chr12:64421256:64421371:+|CDS|ENSG00000184575|unk|total|mutant (ssRNA)
RNA: GGGAGUUCUACAGUCCGACGAUCGUUGACUUCCUGGCCAGAUUUUCUAAGUUGGUAAAUGGAAUGGGACAGUCAUUGACCGUCCGUUGGAGUAAAUUAAUUAAGAAUGGGGAUAUUAAGAAUGCUCAAGAGGCACUACAAGCUCAACAGAGGAUUGAGCAUCA
B14: chr15:64675409:64675510:+|CDS|ENSG00000180357|msi1|FALSE|bound_elsewhere (ssRNA)
RNA: GGGAGUUCUACAGUCCGACGAUCAACCAACAGCCCUGCAUACUCUGACAUCUCUGAUGCUGGGGAGGAUGGGGAGGGCAAGGUAGACAGUGUCAAAUCAAAGGACGCCGAACAGUUGGUUAAAGAAGGGGCUAAGAAAACUCUCAACAGAGGAUUGAGCAUCA
B15: chr11:107429260:107429366:-|CDS|ENSG00000152404|unk|total|mutant (ssRNA)
RNA: GGGAGUUCUACAGUCCGACGAUCGAGGAAACCCACAUAUUCAGAUAAAGCACAAAAUUGUCAAGAAAGCCGAGAAUCAGACUCCGUAAAAUAUGGUAACAGUUCAAGGGACCGAUAUGCUACAACAGAUACUGCAAAAAACCGCAACAGAGGAUUGAGCAUCA
B16: chr9:121988909:121989747:-|three_prime_utr|ENSG00000175764|control|control|control (ssRNA)
RNA: GGGAGUUCUACAGUCCGACGAUCACCUCUCCUUAUCGACAAGCUCAAGUUUGAUAUUCGUCUGUAUGUCUUACUCAAGUCCUUAGACCCCUUAGAGAUUUAUAUAGCCAAAGACGGACUCUCUAGGUUUUGUACCGAGCCAUACAACAGAGGAUUGAGCAUCA
B17: chr2:43888187:43888297:-|3pUTR|ENSG00000138095|unk|total|mutant (ssRNA)
RNA: GGGAGUUCUACAGUCCGACGAUCAAAAUGUUAUUCCUUUAUUUAAGAUUCACUUAUCCGUCUGCUGUUUCUCUGAAAAAUUUCCGAGCCCGGUACCGUGACCGUGAACUUUCUAACGCAUAAUAUUCUGUGAUACAGCCAUUCCAACAGAGGAUUGAGCAUCA
B18: chr11:69651733:69651797:+|3pUTR|ENSG00000110092|msi1_unk|FALSE|overlapping (ssRNA)
RNA: GGGAGUUCUACAGUCCGACGAUCAAAACAUUUUAAAAACAUAGAAAAAUUCAGCAAACCAUUUUUAAAGUAGAAGAGGGUUUUAGGUAGAAAAACAUAUUCUUGUGCUUUUCCUGAUAAAGCACAGCUGUAGUGGGGUUCUAGCAACAGAGGAUUGAGCAUCA
B19: ENSG00000124766:be:win_1801|3pUTR|ENSG00000124766|bound_else_gene|NA|bound_elsewhere_windowed (ssRNA)
RNA: GGGAGUUCUACAGUCCGACGAUCGAGCUUCCGGACUUGUCUGCACCCCCAGCAAGAAGGCGAGUUAGUUUUCUAGAGACUUGAAGGAGUCUCCCCCUUCCUGCAUCACCACCUUGGUUUUGUUUUAUUUUGCUUCUUGGUCAACAACAGAGGAUUGAGCAUCA
B20: chr1:113764432:113764533:-|3pUTR|ENSG00000081019|msi1|total|mutant (ssRNA)
RNA: GGGAGUUCUACAGUCCGACGAUCAAAAUAUUCUGAAACCGGUUAAAUCUUAUAUAAAUAUUACUUUGUGCAAUAUUGUUGUGCCGUUAAAUGCAUAUCCGCAAAGUACCGAGGUCACUGUGUAAACCGACCGAAAAGUAACCACAACAGAGGAUUGAGCAUCA
B21: ENSG00000075624:stop:overlap|stop_codon|ENSG00000075624|stop_codon|NA|stop_codon (ssRNA)
RNA: GGGAGUUCUACAGUCCGACGAUCGGAUCAGCAAGCAGGAGUAUGACGAGUCCGGCCCCUCCAUCGUCCACCGCAAAUGCUUCUAGGCGGACUAUGACUUAGAUUUAAAAACUGGAACGGUGAAGGUGACAGCAGUCGGUUGGACAACAGAGGAUUGAGCAUCA
B22: chr10:32268825:32268926:-|3pUTR|ENSG00000120616|unk|total|mutant (ssRNA)
RNA: GGGAGUUCUACAGUCCGACGAUCUGGGGACUUGACAGCAAUGCUCAUCUCUCAUGCUUCAAUUUUUCUUUUCUUACUGUUAACCGGAAAAAAAUCAACAUCUGUAAAUUAAGAAUACAGCAAUUAUCUGUACAGUACUGCAUACAACAGAGGAUUGAGCAUCA

The source of these data is publication PMC12136788.

Some of the results follow.

The target in the experiment is MSI1 full-length (mouse, UniProt Q61474 1-362). As to the kind of experiment: nsRBNS (natural sequence RNA bind-n-seq); RBNS binding buffer (assumed for nsRBNS): 25 mM Tris pH 7.5, 150 mM KCl, 3 mM MgCl2, 0.01% Triton X-100, 500 ug/ml BSA, 20 U/ml SUPERase-In, 4 C; UNK is unkempt and MSI1 is Musashi-1; names of the RNAs are library labels; protein concentration not given here; high values mean tight binding.
Chain of UniProt Q61474 (Q61474 whole entry): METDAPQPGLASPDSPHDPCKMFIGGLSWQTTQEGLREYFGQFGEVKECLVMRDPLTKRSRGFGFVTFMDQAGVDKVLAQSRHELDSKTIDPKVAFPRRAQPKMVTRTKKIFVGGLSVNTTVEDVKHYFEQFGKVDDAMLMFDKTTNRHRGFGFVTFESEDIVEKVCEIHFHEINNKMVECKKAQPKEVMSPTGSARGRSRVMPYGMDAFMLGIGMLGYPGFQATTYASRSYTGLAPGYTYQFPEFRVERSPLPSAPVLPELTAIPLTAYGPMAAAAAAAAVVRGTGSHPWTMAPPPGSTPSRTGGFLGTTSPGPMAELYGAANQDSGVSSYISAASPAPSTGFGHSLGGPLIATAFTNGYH
For the molecule B1, the binding signal was found to be 2.31 enrichment R.
The molecule B2 displayed a binding signal of 2.38 enrichment R.
On to B3, for which the binding signal was determined as 3.28 enrichment R.
For the molecule B4, the binding signal was determined as 0.541 enrichment R.
The figure for B5 is 0.903 enrichment R; for B6 it is 0.628 enrichment R.
Next, B7: 0.624 enrichment R; B8: 2.34 enrichment R; B9: 0.418 enrichment R.
As for B10, the binding signal worked out at 0.899 enrichment R.
Next, B11: 0.431 enrichment R; B12: 1.24 enrichment R.
The figure for B13 is 0.57 enrichment R; for B14 it is 0.442 enrichment R; for B15 it is 0.703 enrichment R.
Next, B16: 1.3 enrichment R; B17: 0.353 enrichment R; B18: 13.6 enrichment R.
B19 yielded a binding signal of 0.837 enrichment R.
The figure for B20 is 0.583 enrichment R; for B21 it is 2.6 enrichment R.
Molecule B22 registered a binding signal of 0.443 enrichment R.
